Here are results for one substance from PMC5434977 (Analytical chemistry, 2016).

In this assay the test system is Salmonella enterica MTAN. Conditions: substrate 2AMTA.

2-amino-5′-methylthioadenosine [2AMTA]: the Michaelis constant (Km) (in general, the substrate concentration at which the rate is half of its maximum) was found to be 8 ± 1.6 µM; the kcat – broadly, the number of substrate molecules converted per active site and unit of time at saturation – amounted to 1.6 ± 0.18 s⁻¹.
